This is an account of results in article PMC6386420.

Chains of the proteins cited; added tags and fusions are not shown.
UniProt P63104: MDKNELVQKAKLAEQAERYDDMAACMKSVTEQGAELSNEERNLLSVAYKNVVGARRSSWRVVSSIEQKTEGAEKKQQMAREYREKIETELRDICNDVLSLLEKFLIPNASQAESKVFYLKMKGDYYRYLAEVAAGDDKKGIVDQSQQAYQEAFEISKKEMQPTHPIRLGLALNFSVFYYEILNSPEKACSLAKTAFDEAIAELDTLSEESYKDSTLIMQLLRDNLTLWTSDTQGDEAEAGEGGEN

No constants are given. Whether binding was seen depends on the method and setting. In cells and extracts the contact can be indirect. Some entries that bind do so weakly or less than the wild type. Sequences can lack the tags named with a protein.

The target of assay [1] is T1, FLAG-C-MDA5 (UniProt Q9BYX4).
T1 sequence: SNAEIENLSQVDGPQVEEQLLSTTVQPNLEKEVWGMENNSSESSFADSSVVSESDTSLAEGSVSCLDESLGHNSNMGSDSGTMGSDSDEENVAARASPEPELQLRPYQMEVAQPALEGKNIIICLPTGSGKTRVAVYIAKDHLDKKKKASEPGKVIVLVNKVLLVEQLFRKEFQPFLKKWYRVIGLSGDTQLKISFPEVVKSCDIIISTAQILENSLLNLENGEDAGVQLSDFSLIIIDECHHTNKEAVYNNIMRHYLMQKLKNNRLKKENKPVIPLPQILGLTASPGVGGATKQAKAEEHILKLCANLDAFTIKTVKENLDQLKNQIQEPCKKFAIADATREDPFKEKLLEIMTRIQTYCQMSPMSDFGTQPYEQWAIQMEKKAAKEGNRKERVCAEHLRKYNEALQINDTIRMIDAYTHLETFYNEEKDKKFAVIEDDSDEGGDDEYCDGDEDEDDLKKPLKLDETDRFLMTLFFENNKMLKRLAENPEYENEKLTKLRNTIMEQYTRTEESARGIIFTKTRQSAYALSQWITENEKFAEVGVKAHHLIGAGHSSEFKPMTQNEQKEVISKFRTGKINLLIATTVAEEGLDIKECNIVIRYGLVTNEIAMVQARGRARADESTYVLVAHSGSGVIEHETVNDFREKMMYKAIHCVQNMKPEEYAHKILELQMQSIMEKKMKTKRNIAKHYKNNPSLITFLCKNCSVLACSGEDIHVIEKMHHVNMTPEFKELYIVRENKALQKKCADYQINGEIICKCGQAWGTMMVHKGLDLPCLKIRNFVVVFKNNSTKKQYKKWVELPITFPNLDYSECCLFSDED
In words: co-IP; Huh7 cells co-transfected with FLAG-N-MDA5 or FLAG-C-MDA5 and myc-tagged 14-3-3 isoforms; anti-FLAG immunoprecipitation of lysates, immunoblot. On the technique in general: A western blot detects proteins with antibodies after separation by electrophoresis.

Assay [2] deals with T2, FLAG-N-MDA5 (UniProt Q9BYX4).
T2 sequence: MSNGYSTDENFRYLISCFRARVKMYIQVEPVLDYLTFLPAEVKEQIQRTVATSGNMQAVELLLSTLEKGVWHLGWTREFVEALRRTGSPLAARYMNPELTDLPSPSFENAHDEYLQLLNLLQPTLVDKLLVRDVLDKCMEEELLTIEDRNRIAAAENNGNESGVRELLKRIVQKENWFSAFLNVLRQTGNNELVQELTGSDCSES
The assay is described as above.

With “myc-tagged 14-3-3ζ (from UniProt P63104 1-245)”, the binding result in assay [1] is given as “no binding”; in assay [2] it was “binds weakly”.
